# Test results published in the supplement of paper PMC8728848.
# The list shows a part of the results.
# B1: Sebin1 (Coprinopsis cinerea), A8PEE3 (protein)
# chain: MTSPFYAHIHNVQDDNTWRFTLIFANRATADEWWRAISEAPANTSIAKSITRVTPQYYTHDVNIWNIWNFFADGNIKSISERFRGRLFIVLENDRGGRGITVIPPVPIVDHVSGNWFYIRSKTAPHLFWYYDERRSSIYASKEKRTRFKISIRNPSSQTPKNAIMINTDDVTIHIKENLYVGVDNNLGHIIPTRAYRTFKFGELESGAIAGFDVVENIEERCSSTFDGASLSISGPDSSSPGEPWELV
# Legend:
# Test in all cases: glycan array binding signal (z-score within array); higher = stronger binding
# Conditions in all cases: glycan notation: IUPAC condensed, linker removed
# [1] = target: Gal(b1-4)GlcNAc(b1-2)Man(a1-3)[Gal(b1-4)GlcNAc(b1-2)Man(a1-6)]Man(b1-4)GlcNAc(b1-4)GlcNAc
# Outline: (§1)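 The binding signal is a Z-score computed within each array. Data were drawn from 3228 arrays in the Consortium for Functional Glycomics database, restricted to those with a known protein sequence. Scores were averaged over arrays of the same protein sequence at different concentrations or buffers, and over linkers, and negative values can be taken as non-binding.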
# [2] = target: Gal(b1-4)GlcNAc(b1-2)Man(a1-3)[Gal(b1-4)GlcNAc(b1-2)Man(a1-6)]Man(b1-4)GlcNAc(b1-4)[Fuc(a1-6)]GlcNAc
# Outline: as §1
# [3] = target: Gal(b1-4)GlcNAc(b1-2)Man(a1-3)[Gal(b1-4)GlcNAc(b1-2)Man(a1-6)][Gal(b1-4)GlcNAc(b1-4)]Man(b1-4)GlcNAc(b1-4)[Fuc(a1-6)]GlcNAc
# Outline: as §1
# [4] = target: Gal(b1-4)GlcNAc(b1-2)Man(a1-3)[Gal(b1-4)GlcNAc(b1-2)Man(a1-6)][GlcNAc(b1-4)]Man(b1-4)GlcNAc(b1-4)[Fuc(a1-6)]GlcNAc
# Outline: as §1
# [5] = target: Gal(b1-4)GlcNAc(b1-2)Man(a1-3)[GlcNAc(b1-2)Man(a1-6)]Man(b1-4)GlcNAc(b1-4)GlcNAc
# Outline: as §1
# [6] = target: Gal(b1-4)GlcNAc(b1-2)Man(a1-3)[GlcNAc(b1-4)][Gal(b1-4)GlcNAc(b1-2)Man(a1-6)]Man(b1-4)GlcNAc(b1-4)GlcNAc
# Outline: as §1
# [7] = target: Gal(b1-4)GlcNAc(b1-2)Man(a1-3)[Man(a1-6)]Man(b1-4)GlcNAc(b1-4)GlcNAc
# Outline: as §1
# [8] = target: Gal(b1-4)GlcNAc(b1-2)Man(a1-6)Man(b1-4)GlcNAc(b1-4)GlcNAc
# Outline: as §1
# [9] = target: Gal(b1-4)GlcNAc(b1-2)Man(a1-6)[GlcNAc(b1-2)Man(a1-3)]Man(b1-4)GlcNAc(b1-4)GlcNAc
# Outline: as §1
# [10] = target: Gal(b1-4)GlcNAc(b1-2)Man(a1-6)[Man(a1-3)]Man(b1-4)GlcNAc(b1-4)GlcNAc
# Outline: as §1
# [11] = target: Gal(b1-4)GlcNAc(b1-2)[Gal(b1-4)GlcNAc(b1-4)]Man(a1-3)[Gal(b1-4)GlcNAc(b1-2)Man(a1-6)]Man(b1-4)GlcNAc(b1-4)GlcNAc
# Outline: as §1
# [12] = target: Gal(b1-4)GlcNAc(b1-2)[Gal(b1-4)GlcNAc(b1-4)]Man(a1-3)[Gal(b1-4)GlcNAc(b1-2)[Gal(b1-4)GlcNAc(b1-6)]Man(a1-6)]Man(b1-4)GlcNAc(b1-4)GlcNAc
# Outline: as §1
# [13] = target: Gal(b1-4)GlcNAc(b1-2)[Gal(b1-4)GlcNAc(b1-4)]Man(a1-3)[GlcNAc(b1-4)][Gal(b1-4)GlcNAc(b1-2)Man(a1-6)]Man(b1-4)GlcNAc(b1-4)GlcNAc
# Outline: as §1
# [14] = target: Gal(b1-4)GlcNAc(b1-2)[Gal(b1-4)GlcNAc(b1-4)]Man(a1-3)[GlcNAc(b1-4)][Gal(b1-4)GlcNAc(b1-2)[Gal(b1-4)GlcNAc(b1-6)]Man(a1-6)]Man(b1-4)GlcNAc(b1-4)GlcNAc
# Outline: as §1
# [15] = target: Gal(b1-4)GlcNAc(b1-2)[Gal(b1-4)GlcNAc(b1-6)]Man(a1-6)[Gal(b1-4)GlcNAc(b1-2)Man(a1-3)]Man(b1-4)GlcNAc(b1-4)GlcNAc
# Outline: as §1
# [16] = target: Gal(b1-4)GlcNAc(b1-2)[Gal(b1-4)GlcNAc(b1-6)]Man(a1-6)[Gal(b1-4)GlcNAc(b1-2)Man(a1-3)]Man(b1-4)GlcNAc(b1-4)[Fuc(a1-6)]GlcNAc
# Outline: as §1
# [17] = target: Gal(b1-4)GlcNAc(b1-2)[Gal(b1-4)GlcNAc(b1-6)]Man(a1-6)[GlcNAc(b1-4)][Gal(b1-4)GlcNAc(b1-2)Man(a1-3)]Man(b1-4)GlcNAc(b1-4)GlcNAc
# Outline: as §1
# [18] = target: Gal(b1-4)GlcNAc(b1-2)[Gal(b1-4)GlcNAc(b1-6)]Man(a1-6)[GlcNAc(b1-4)][Gal(b1-4)GlcNAc(b1-2)[Gal(b1-4)GlcNAc(b1-4)]Man(a1-3)]Man(b1-4)GlcNAc(b1-4)[Fuc(a1-6)]GlcNAc
# Outline: as §1
# [19] = target: Gal(b1-4)GlcNAc(b1-3)Gal(b1-3)GalNAc
# Outline: as §1
binder,measurement,setting,value
B1,glycan array binding signal (z-score),[1],-0.363
same,glycan array binding signal (z-score),[2],-0.04
same,glycan array binding signal (z-score),[3],0.012
same,glycan array binding signal (z-score),[4],0.164
same,glycan array binding signal (z-score),[5],0.006
same,glycan array binding signal (z-score),[6],0.511
same,glycan array binding signal (z-score),[7],0.357
same,glycan array binding signal (z-score),[8],0.006
same,glycan array binding signal (z-score),[9],-0.684
same,glycan array binding signal (z-score),[10],0.145
same,glycan array binding signal (z-score),[11],-0.168
same,glycan array binding signal (z-score),[12],-0.199
same,glycan array binding signal (z-score),[13],0.136
same,glycan array binding signal (z-score),[14],0.993
same,glycan array binding signal (z-score),[15],0.454
same,glycan array binding signal (z-score),[16],0.018
same,glycan array binding signal (z-score),[17],0.362
same,glycan array binding signal (z-score),[18],0.02
same,glycan array binding signal (z-score),[19],1.23
